# Reference: PubChem BioAssay (Tox21)
# Where “and” joins values, the source holds several entries; their conditions need not be identical. Equal entries are not always repeated. This list was built around the results that the source calls inconclusive (neither active nor inactive); the mix of calls is not that of the screen. Where the call is inconclusive, the potency comes from a doubtful curve fit. Calls of active or inactive are those of the source. Unless noted, the call rests on the fitted dose curve; in most records, active means well fitted curve in the direction sought with a large enough effect in the repeat runs; inconclusive means weak or mixed curves; inactive means no such curve, though single readings can be large; an effect the other way counts as inactive or inconclusive.
# Tested on: not listed separately
# Test: qHTS assay to identify small molecule agonists of the estrogen receptor beta (ER-beta) signaling pathway - cell viability counter screen (AID 1259380); further: nearly all actives have a fitted effect of over 30% in size
# Settings: ER-beta-bla HEK293T viability, CellTiter-Glo luminescence, 16 h; series mostly up to 92.4 µM; activity change, negative = cytotoxicity: at the top concentration
# In short: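 HEK293T ER-beta-UAS-bla; 2% CS-FBS; 6 hr pre-plate, 16 hr cpd at 37C/5% CO2; LiveBLAzer read first, then CellTiter-Glo 30 min RT, luminescence.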
# On the % scale 0 is the no-effect control and ±100 the full control effect; potency means the concentration at half of the fitted maximal effect; tags describe the fitted curve by direction and shape.
SMILES,"activity change, negative = cytotoxicity",Potency
CC(C)(CCl)C(=O)Cl,inactive: 1.17%,
COc1cc(CC(C)N)cc(OC)c1OC (stereo unspecified),inactive: 4.66%,
C=CCOC(=O)c1ccccc1N,,active: 30.8 µM
O=C(NC(=O)c1c(F)cccc1F)Nc1ccc(Cl)cc1,,inactive
CCOCN(C(=O)CCl)c1c(C)cccc1CC,,"inconclusive: 45.9 µM [cytotoxic, partial curve]"
CCCCN(CCCC)SN(C)C(=O)Oc1cccc2c1OC(C)(C)C2,,"inconclusive: 27.3 µM [cytotoxic, single point]"
O=C(NC(=O)c1c(F)cccc1F)Nc1cc(Cl)c(Oc2ncc(C(F)(F)F)cc2Cl)c(Cl)c1,,"inconclusive: 41.4 µM [cytotoxic, partial curve]"
CC1COC(Cn2cncn2)(c2ccc(Oc3ccc(Cl)cc3)cc2Cl)O1 (stereo unspecified),,"inconclusive: 68.6 µM [cytotoxic, single point]"
CCOc1cc(Oc2ccc(C(F)(F)F)cc2Cl)ccc1[N+](=O)[O-],,"inconclusive: 27.3 µM [rising, single point]"
CCOC(=O)C1(c2ccccc2)CCN(CCC(C#N)(c2ccccc2)c2ccccc2)CC1,,"inconclusive: 5.96 µM [cytotoxic, full curve]"
CCC(CC)Nc1c([N+](=O)[O-])cc(C)c(C)c1[N+](=O)[O-],,"inconclusive: 69.5 µM [cytotoxic, single point] and active: 61.1 µM"
CC[C@@H](CO)NC(=O)[C@@H]1C=C2c3cccc4c3c(cn4C)C[C@H]2N(C)C1,inactive: -11.3% [at 42.5 µM],
CSC(=O)c1c(C(F)F)nc(C(F)(F)F)c(C(=O)SC)c1CC(C)C,,"inconclusive: 76.5 µM [cytotoxic, single point]"
O=[N+]([O-])c1ccc(Oc2ccc(C(F)(F)F)cc2[N+](=O)[O-])cc1,inactive: 7.43%,
CC1COC2(c3ccccc3Cl)c3cc(Cl)ccc3NC(=O)CN12 (stereo unspecified),,"inconclusive: 26.6 µM [cytotoxic, partial curve]"
CC1CN1 (stereo unspecified),inactive: 0.577%,
CCCC(Cn1cncn1)c1ccc(Cl)cc1Cl (stereo unspecified),,"inconclusive: 13.7 µM [cytotoxic, full curve]"
CSC1=N[C@@](C)(c2ccccc2)C(=O)N1Nc1ccccc1,,"inconclusive: 27.3 µM [cytotoxic, full curve]"
CC(C)(OOC(C)(C)c1ccccc1)c1ccccc1,,"inconclusive: 47.9 µM [cytotoxic, partial curve]"
NNc1ccccc1,,"inconclusive: 6.78 µM [cytotoxic, full curve] [middle of 4 runs]"
O=C(O)CCCOc1ccc(Cl)cc1Cl,,inconclusive: 62.2 µM [cytotoxic]

# Tested on: not listed separately
# Test: qHTS assay to identify small molecule antagonists of the estrogen receptor beta (ER-beta) signaling pathway - cell viability counter screen (AID 1259382); further: nearly all actives have a fitted effect of over 55% in size;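 on activity change, negative = cytotoxicity: HEK293T cells carrying ER-beta-UAS-bla reporter stimulated with estradiol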
# Settings: ER-beta-UAS-bla HEK293T viability, CellTiter-Glo luminescence, 16 h; series mostly up to 92.4 µM; activity change, negative = cytotoxicity: at the top concentration
# In short: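 Cells: ER-beta-UAS-bla HEK293T, 2,000/well, 2% CS-FBS, 6 hr settle. Cpd + E2 (1nM final), 16 hr, 37C/5% CO2. Bla FRET substrate 2 hr RT, then CellTiter-Glo 30 min RT, luminescence.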
SMILES,Potency,"activity change, negative = cytotoxicity"
CC1COC(Cn2cncn2)(c2ccc(Oc3ccc(Cl)cc3)cc2Cl)O1 (stereo unspecified),"inconclusive: 68.6 µM [cytotoxic, single point]",
NS(=O)(=O)C(F)(F)C(F)(F)C(F)(F)C(F)(F)C(F)(F)C(F)(F)C(F)(F)C(F)(F)F,"inconclusive: 15.4 µM [cytotoxic, partial curve, poor fit]",
NNc1ccccc1,"inconclusive: 3.86 µM [cytotoxic, full curve] [middle of 4 runs]",
O=C(O)CCCOc1ccc(Cl)cc1Cl,"inconclusive: 78.3 µM [cytotoxic, partial curve, poor fit]",
NCC(CC(=O)O)c1ccc(Cl)cc1 (stereo unspecified),,inactive: 5.5% [at 0.349 µM]

# Biological target: Thyrotropin receptor (Homo sapiens) (UniProt P16473)
# Test: qHTS assay to identify small molecule antagonists of the thyroid stimulating hormone receptor (TSHR) signaling pathway (AID 1259385; calls by dose curve; further: nearly all actives have a fitted effect of over 20% in size)
# Settings: TSHR-HEK293 cAMP HTRF, TSH-stimulated antagonist mode; activity change, negative = inhibition: at 92.4 µM (top of the series) unless noted
# In short: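 TSHR-HEK293 cells were plated and held 18 h at 37C/5% CO2, then given compound plus Ro20-1724 and stimulated with TSH at 1.5 ng/mL final. After 30 min at room temperature, cAMP was detected with cAMP-d2/anti-cAMP-cryptate (1 h) by fluorescence.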
# Sequence of UniProt P16473 (P16473 whole entry, looked up): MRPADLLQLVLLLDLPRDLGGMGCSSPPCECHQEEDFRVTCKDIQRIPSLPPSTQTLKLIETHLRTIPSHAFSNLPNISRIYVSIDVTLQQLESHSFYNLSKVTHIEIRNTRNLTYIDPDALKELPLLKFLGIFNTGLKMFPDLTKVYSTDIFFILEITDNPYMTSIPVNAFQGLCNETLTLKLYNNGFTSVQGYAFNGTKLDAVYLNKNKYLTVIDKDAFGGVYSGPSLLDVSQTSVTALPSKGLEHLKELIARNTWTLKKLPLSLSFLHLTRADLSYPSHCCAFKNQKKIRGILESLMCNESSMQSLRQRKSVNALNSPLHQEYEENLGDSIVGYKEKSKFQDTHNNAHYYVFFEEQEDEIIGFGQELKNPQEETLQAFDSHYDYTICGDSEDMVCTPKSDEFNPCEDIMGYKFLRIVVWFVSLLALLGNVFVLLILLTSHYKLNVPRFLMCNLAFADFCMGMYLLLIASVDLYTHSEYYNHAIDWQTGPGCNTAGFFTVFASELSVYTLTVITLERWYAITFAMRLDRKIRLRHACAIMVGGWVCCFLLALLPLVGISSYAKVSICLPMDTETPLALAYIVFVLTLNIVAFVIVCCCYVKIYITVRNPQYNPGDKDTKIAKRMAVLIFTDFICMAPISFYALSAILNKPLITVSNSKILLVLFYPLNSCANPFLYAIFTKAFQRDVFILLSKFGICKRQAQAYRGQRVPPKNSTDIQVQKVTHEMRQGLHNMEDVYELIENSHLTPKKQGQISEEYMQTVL
SMILES,Potency,"activity change, negative = inhibition"
COP(=S)(OC)Oc1ccc(Sc2ccc(OP(=S)(OC)OC)cc2)cc1,"inconclusive: 33.5 µM [falling, partial curve, poor fit]",
CC1COC(Cn2cncn2)(c2ccc(Oc3ccc(Cl)cc3)cc2Cl)O1 (stereo unspecified),"inconclusive: 68.6 µM [falling, single point]",
CCCCN(CC)C(=O)SCCC,inconclusive: 55 µM,
CCOc1cc(Oc2ccc(C(F)(F)F)cc2Cl)ccc1[N+](=O)[O-],"inconclusive: 24.6 µM [falling, full curve]",
CCC(CC)Nc1c([N+](=O)[O-])cc(C)c(C)c1[N+](=O)[O-],,inconclusive: -6.88%
O=[N+]([O-])c1ccc(Oc2ccc(C(F)(F)F)cc2[N+](=O)[O-])cc1,,inactive: -9.49%
CCCC(Cn1cncn1)c1ccc(Cl)cc1Cl (stereo unspecified),inconclusive: 68.6 µM,
CC(C)(OOC(C)(C)c1ccccc1)c1ccccc1,,inconclusive: -8.1%

# Tested on: not listed separately
# Test: qHTS assay to identify small molecule agonists of the estrogen receptor alpha (ER-alpha) signaling pathway in the presence of an antagonist - cell viability counter screen (AID 1259386);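 further: cells exposed to compounds for 22 h at 37 °C before the viability read; nearly all actives have a fitted effect of over 30% in size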
# Settings: VM7Luc4E2 viability, CellTiter-Fluor fluorescence, 22 h; series mostly up to 92.4 µM; activity change, negative = cytotoxicity: at the top concentration
# In short: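 VM7Luc4E2, stripped-serum pre-culture 5 d; 24hr plating; +ICI-182,780 10.0nM final; cpds 15 conc, 22hr, 37C/5% CO2; CellTiter-Fluor added at 21hr, fluorescence 1hr later.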
SMILES,Potency,"activity change, negative = cytotoxicity"
COP(=S)(OC)Oc1ccc(Sc2ccc(OP(=S)(OC)OC)cc2)cc1,inactive,
CCCCN(CCCC)SN(C)C(=O)Oc1cccc2c1OC(C)(C)C2,"inconclusive: 0.22 µM [cytotoxic, full curve, poor fit]",
CC1COC(Cn2cncn2)(c2ccc(Oc3ccc(Cl)cc3)cc2Cl)O1 (stereo unspecified),"inconclusive: 34.4 µM [cytotoxic, partial curve]",
CCCCN(CC)C(=O)SCCC,inactive,
NS(=O)(=O)C(F)(F)C(F)(F)C(F)(F)C(F)(F)C(F)(F)C(F)(F)C(F)(F)C(F)(F)F,,inactive: -8.63%
CCC(CC)Nc1c([N+](=O)[O-])cc(C)c(C)c1[N+](=O)[O-],inactive,
CSC1=N[C@@](C)(c2ccccc2)C(=O)N1Nc1ccccc1,active: 54.5 µM,
